According to ChEMBL document CHEMBL4888484, “Replenishing the malaria drug discovery pipeline: Screening and hit evaluation of the MMV Hit Generation Library 1 (HGL1) against asexual blood stage Plasmodium falciparum ,using a nano luciferase reporter read-out” (2022):
About 540 (0.36%) of roughly 150,000 compounds showed an effect of 50% or more. Some of the results follow.

The molecules below were run on Plasmodium falciparum (assay: Primary screen in NF54 nanoGlo assay, in single point, at 2uM, 72h; a lower Z score goes with more inhibition). Conditions: timepoint 72 hour.
Format: functional, Erythrocyte
`O=C(O)Cn1nccc1[C@H]1CCCN(Cc2ccc3nsnc3c2)C1` was tested, and the “% Inhibition” value was -10% and the Z score was 1.36. With `CCCc1nc(Cc2ccc(OC)c(OC)c2)no1` the “% Inhibition” value was -5% and the Z score was 0.72. In the case of `CC(C)c1nc(CN2CCC[C@H]2c2nc(-c3ccccc3)n[nH]2)no1`, the “% Inhibition” value is reported as -13% and the Z score is reported as 2.06. With `CON1C(=O)C(=O)N(OC)C(C)(C)[C@@H]1C` the “% Inhibition” value was 3% and the Z score was -0.65. With `Cc1nc(C)c(C)c(NCC(C)(C)N2CCCC2)n1` the “% Inhibition” value was -1% and the Z score was 0.13. `O=C(NC1CCN(CCO)CC1)N1CCCC[C@@H]1CCc1ccccc1` was tested, and the “% Inhibition” value was 6% and the Z score was -0.83. For `C[C@H]1c2ccsc2CCN1C(=O)c1cc(C2CC2)[nH]n1`, the “% Inhibition” value was -11% and the Z score was 0.97. With `Nc1ccc(N2CCN(c3ncccn3)CC2)cn1` the “% Inhibition” value was -14% and the Z score was 1.92. For `COc1cc(N2CCC(c3nnc(CN4CCCC4)n3C)CC2)ncn1`, the “% Inhibition” value was -9% and the Z score was 1.11. In the case of `O=C(c1ccc(Oc2nccs2)cc1)N1Cc2cncnc2C1`, the “% Inhibition” value is reported as -4% and the Z score is reported as 0.82. For `CN([C@H]1CC[C@@H](C(F)(F)F)CC1)S(=O)(=O)c1ccsc1`, the “% Inhibition” value was -14% and the Z score was 2.28. For `O=S(=O)(NCC1(c2ccccn2)CCC1)C1CCCCC1`, the “% Inhibition” value was -7% and the Z score was 1.04. With `CC(=O)N1CCCC1C1CCCN1C(C)c1nc(-c2ccc(Cl)cc2)no1` (stereo not given) the “% Inhibition” value was -7% and the Z score was 0.76. `Cc1ccccc1C(=O)NCc1ccnc(-c2cccnc2)c1` was tested, and the “% Inhibition” value was -1% and the Z score was 0.11. With `Cc1nc(-c2cccc(C(=O)N3CC=C[C@@H]3C(C)C)c2)c2ccccc2n1` the “% Inhibition” value was -6% and the Z score was 1.21. For `CCn1ncc(NC(=O)Cn2cc(-c3nccc(OC)n3)cn2)n1`, the “% Inhibition” value was -7% and the Z score was 1.03. `Cn1cccc1CN(C(=O)c1ccno1)C1CC1` was tested, and the “% Inhibition” value was 1% and the Z score was -0.15. For `Cc1nc(O)nc(O)c1CN1CCOCC1`, the “% Inhibition” value was -10% and the Z score was 1.65. `CC(C)n1cccc1C(=O)NCCCc1nnn[nH]1` was tested, and the “% Inhibition” value was -1% and the Z score was 0.22. `Cc1nc(N[C@@H](C)c2ccncc2)c2c(C)csc2n1` was tested, and the “% Inhibition” value was 1% and the Z score was -0.1. `CC(=O)N1CCN(C(=O)c2ccc(COc3ccc4c(c3)[C@H](c3ccccc3)N(C(=O)C(C)C)CC4)o2)CC1` was tested, and the “% Inhibition” value was -2% and the Z score was 0.38. With `COc1ccc(CCN2CCC[C@]3(C2)C(=O)N(C)C(=O)N3C)cc1` the “% Inhibition” value was -13% and the Z score was 1.71. With `COC[C@H]1CCN(Cc2nc(CCc3ccccc3)no2)C1` the “% Inhibition” value was 12% and the Z score was -1.65. `Cc1ccc(-c2nc(=O)c(CCC(=O)NCCCN3CCOCC3)n[nH]2)cc1Cl` was tested, and the “% Inhibition” value was -8% and the Z score was 0.9. For `COc1cc(Cl)c(C)cc1NC(=O)CCNc1ncccc1C#N`, the “% Inhibition” value was -2% and the Z score was 0.38. `NC(=O)c1ccsc1NC(=O)CN1CCCC2CCCCC21` (stereo not given) was tested, and the “% Inhibition” value was -7% and the Z score was 1.43. For `O=C(NCc1ccccc1)[C@H]1CC(=O)N(c2ccc(OCC(=O)N3CCCC3)cc2)C1`, the “% Inhibition” value was 22% and the Z score was -2.51. For `O[C@H]1[C@@H]2CC[C@H]1CN(C/C=C/c1ccc(F)cc1)C2`, the “% Inhibition” value was -7% and the Z score was 0.87. In the case of `Cn1cc(C(=O)N2CC[C@@]3(CCCN(CC4CC4)C3=O)C2)ccc1=O`, the “% Inhibition” value is reported as -13% and the Z score is reported as 2.08. `Cc1nc2c(c(N(C)Cc3csc(C(C)C)n3)n1)CNC2` was tested, and the “% Inhibition” value was -8% and the Z score was 1.15. With `CCn1ccnc1CN(C)C(=O)NCCc1nc(C)c2c(n1)CCC2` the “% Inhibition” value was 5% and the Z score was -0.71. `c1coc(CNc2nc(C3CCCC3)nc3c2CCOCC3)c1` was tested, and the “% Inhibition” value was -4% and the Z score was 0.58. For `Cc1csc([C@H](C)N(C)C(=O)c2cnc(C3CC3)nc2)n1`, the “% Inhibition” value was 2% and the Z score was -0.3. In the case of `CC(NC(=O)C1CC(=O)N(C)C1)c1ccc(-c2cccnc2)cc1` (stereo not given), the “% Inhibition” value is reported as -2% and the Z score is reported as 0.16. `Cc1c(C(=O)N2CCN(c3ccccc3)CC2)oc2cc3sc(N4CCCCC4)nc3cc12` was tested, and the “% Inhibition” value was -10% and the Z score was 1.25. For `CN(CCc1noc(-c2cc3ccccc3[nH]2)n1)C(=O)c1ccc(N(C)C)cc1`, the “% Inhibition” value was 4% and the Z score was -0.69. With `CCc1ccc([C@H](C)NCCCc2c(C)noc2C)o1` the “% Inhibition” value was 0% and the Z score was -0.03. In the case of `CN(CCC1CCOCC1)C(=O)c1cc(Cn2ccc3ccccc32)[nH]n1`, the “% Inhibition” value is reported as 6% and the Z score is reported as -0.65. `CCOC1CC(N(C)C(=O)Cc2c[nH]c3cc(F)ccc23)C1(C)C` (stereo not given) was tested, and the “% Inhibition” value was -2% and the Z score was 0.25. For `CCc1nnc(NC(=O)CNc2cccc(C(F)(F)F)c2)s1`, the “% Inhibition” value was -6% and the Z score was 1.01. In the case of `CC(C)N=C(NCc1cccnc1N1CCOCC1)c1cccs1`, the “% Inhibition” value is reported as -4% and the Z score is reported as 0.71. For `O=C(NCCc1ccccc1)[C@H]1CNC[C@@H](COc2ccc3c(c2)CCC3)C1`, the “% Inhibition” value was -7% and the Z score was 0.86. In the case of `CN(C)CCNc1[nH]c2nnc(N)c-2c2c1CN(Cc1ccccc1)CC2`, the “% Inhibition” value is reported as -3% and the Z score is reported as 0.47. In the case of `Cc1c(NC(=O)Nc2ccc(Cl)cc2)cc(NC(=O)Nc2ccc(Cl)cc2)c(C)c1N1CCCC1=O`, the “% Inhibition” value is reported as 10% and the Z score is reported as -1.55. For `O=C(Nc1cccc(-c2cnc[nH]2)c1)N1CCC(F)(F)CC1`, the “% Inhibition” value was -18% and the Z score was 2.17. In the case of `CCOc1ccc(NC(=O)[C@H](CC)n2c(C)nc3onc(C)c3c2=O)cc1`, the “% Inhibition” value is reported as -4% and the Z score is reported as 0.55. In the case of `O=C(Cc1csc(Nc2ncccn2)n1)N1CCCC1`, the “% Inhibition” value is reported as -2% and the Z score is reported as 0.4. In the case of `N[C@H](Cc1c[nH]c2ccccc12)C(=O)NCc1cccnc1N1CCOCC1`, the “% Inhibition” value is reported as -8% and the Z score is reported as 1.28. With `CCCc1nc2ccccc2n1[C@@H](CC)C(=O)N1CCC2(CC1)COC(=O)O2` the “% Inhibition” value was -5% and the Z score was 0.64. For `N#Cc1cc2ccccc2nc1OC[C@H]1CCCN1`, the “% Inhibition” value was -21% and the Z score was 3.08. For `O=C(NCCn1ccc2cc(Br)ccc21)c1ccncc1`, the “% Inhibition” value was -2% and the Z score was 0.29. In the case of `CC(=O)N/C(=C\c1ccc(F)cc1)C(=O)N(C)C`, the “% Inhibition” value is reported as -32% and the Z score is reported as 3.7. `COc1cccc([C@H](c2oc3ccccc3c2NC(=O)c2ccccc2)N2CCC(C)CC2)c1OC` was tested, and the “% Inhibition” value was -9% and the Z score was 1.39. In the case of `CC(C)Cc1nc(N2CCCN(C(=O)C3CCCCC3)CC2)c2c(-c3cccc(C(F)(F)F)c3)noc2n1`, the “% Inhibition” value is reported as -10% and the Z score is reported as 1.45. With `CC(C)n1c(=O)[nH]c2cc(C(=O)N3CCOCC3)ccc2c1=O` the “% Inhibition” value was 4% and the Z score was -0.48. With `Cc1cc(-c2cc(O)cc(CC[C@H]3CCCCN3)c2)nc(N)n1` the “% Inhibition” value was -5% and the Z score was 0.81. `Cc1nnc(-c2nn(-c3ccc(C(=O)N4CCCC[C@@H]4C)cc3)c(-c3ccc(F)cc3)c2C)o1` was tested, and the “% Inhibition” value was -11% and the Z score was 1.55. In the case of `Cn1cncc1C(=O)NCC1(COc2ccccc2)CC1`, the “% Inhibition” value is reported as -7% and the Z score is reported as 0.89. In the case of `CCC(CC)n1nc(C)cc1NC(=O)Cc1nc2ccccc2o1`, the “% Inhibition” value is reported as -3% and the Z score is reported as 0.4. `CCc1ncc(NC(=O)N(Cc2ccoc2)C2CC2)cn1` was tested, and the “% Inhibition” value was -12% and the Z score was 1.22. `O=C(CCn1cnc2cc(-c3noc(-c4ccncc4)n3)ccc21)N1CCCCCC1` was tested, and the “% Inhibition” value was -31% and the Z score was 4.04. `CCOC1CC(CO)(NCc2ccc(C)c(C)c2)C1(C)C` (stereo not given) was tested, and the “% Inhibition” value was 5% and the Z score was -0.9. With `CC1OCCC1NCC(=O)N1CCN(c2cccc(Cl)c2)CC1` (stereo not given) the “% Inhibition” value was -8% and the Z score was 0.99. For `Fc1ccccc1OCCNCc1ccc([C@@H]2CCCCO2)o1`, the “% Inhibition” value was -4% and the Z score was 0.69. `COCCN1C[C@@H](Cc2nc(C)ccc2OC)CC1=O` was tested, and the “% Inhibition” value was -4% and the Z score was 0.57. In the case of `O=C(NC1CCN(c2ncnc3c2CCCC3)CC1)[C@@H]1Cc2ccccc2CO1`, the “% Inhibition” value is reported as 7% and the Z score is reported as -0.89. For `C[C@@H](CCc1cccc(F)c1)N(C)CC#N`, the “% Inhibition” value was -7% and the Z score was 1. With `O=C(Nc1ccc(F)cn1)N[C@H]1CCCC12OCCO2` the “% Inhibition” value was -11% and the Z score was 1.15. With `COc1ccc(S(=O)(=O)N2CCCC[C@H]2c2nccs2)cc1Cl` the “% Inhibition” value was 2% and the Z score was -0.37. `Cc1cnc(C(NC(C)C2CC2)C2CC2)s1` (stereo not given) was tested, and the “% Inhibition” value was -3% and the Z score was 0.4. With `Cc1cncc(-c2nc(C)nn2CC(F)(F)F)c1` the “% Inhibition” value was -6% and the Z score was 0.99. In the case of `CC1CCCN(C(=O)OCC2CCCCN2)C1` (stereo not given), the “% Inhibition” value is reported as -2% and the Z score is reported as 0.2. In the case of `COCCC(=O)Nc1cc(Br)c(F)cc1Cl`, the “% Inhibition” value is reported as -5% and the Z score is reported as 0.85. With `CCN1CCN(S(=O)(=O)c2cc(NC(=O)C3CCC3)ccc2Oc2c(C)c(C(=O)O)nn2-c2ccc(C)cc2C)CC1` the “% Inhibition” value was -4% and the Z score was 0.65. In the case of `CCN(C)C1(CNS(=O)(=O)c2ccc(C)s2)CCCC1`, the “% Inhibition” value is reported as -5% and the Z score is reported as 0.7. With `C=C[C@@](C)(O)CN1CCN(Cc2nc(C(=O)N3CCN(c4ccccc4CC)CC3)co2)CC1` the “% Inhibition” value was 1% and the Z score was -0.09. In the case of `CCN(CCOC)C(=O)N[C@@H](C)c1ccc(O)c(F)c1`, the “% Inhibition” value is reported as -9% and the Z score is reported as 0.9. In the case of `CCCCNC(=O)N1CCN(c2nc(CCCC)nc3onc(-c4ccccc4)c23)CC1`, the “% Inhibition” value is reported as -1% and the Z score is reported as 0.07. For `O=C(NC1CCCC1)c1cc2n(n1)[C@H](C(F)(F)F)C[C@H](c1ccco1)N2`, the “% Inhibition” value was -3% and the Z score was 0.36. For `CNC(=O)[C@H](Cc1c[nH]c2ccccc12)NC(=O)Nc1ccc(OCCOC)nc1`, the “% Inhibition” value was 0% and the Z score was -0.06. `COc1cc(=O)n(-c2ccccc2)cc1C(=O)N1CCN(S(=O)(=O)C2CC2)CC1` was tested, and the “% Inhibition” value was 16% and the Z score was -1.98. For `COCc1ccc(C(=O)N(Cc2ccncc2)Cc2ccc3c(c2)OCO3)o1`, the “% Inhibition” value was 5% and the Z score was -0.68. In the case of `c1ccc2c(-n3nnc4ccccc43)ncnc2c1`, the “% Inhibition” value is reported as 10% and the Z score is reported as -0.97. In the case of `CCNc1ncc(CN(C)C[C@H]2CCOC2)cn1`, the “% Inhibition” value is reported as -2% and the Z score is reported as 0.27. For `CCc1nnc(C(=O)NC(CC)(CC)C(=O)OC)s1`, the “% Inhibition” value was -15% and the Z score was 2.1.
